According to a compilation of properties of binary mixtures (doi:10.1021/acs.jced.0c00426):
Some of these densities may be calculated back from excess volumes.

Experiment: xn = mol fraction of the nth substance listed
Details: 101.3 kPa

CNc1ccccc1 + CCCC[n+]1ccn(C)c1.F[B-](F)(F)F
mass density [kg/m3]
Details | x2 = 0 | x2 = 0.0973 | x2 = 0.184 | x2 = 0.2982 | x2 = 0.3909 | x2 = 0.5025 | x2 = 0.5928 | x2 = 0.7005 | x2 = 0.7963 | x2 = 0.901
293.15 K | 988.4 | 1026.6 | 1056.5 | – | – | 1131.5 | – | 1163.6 | – | 1191.4
298.15 K | – | – | 1053.8 | 1085.7 | 1107 | 1128.9 | 1144.2 | 1161 | 1174.9 | 1188.8
303.15 K | 980.3 | 1020.1 | 1050.4 | 1082.5 | 1103.9 | – | – | – | – | 1185.6
308.15 K | 976.2 | – | 1047.1 | 1079.1 | – | 1122.6 | – | 1154.6 | – | 1182
313.15 K | 972.2 | 1013.5 | 1043.8 | 1075.6 | 1097 | 1118.9 | 1134.7 | 1151.2 | – | 1178.2
318.15 K | – | 1010.2 | 1040.8 | 1072.5 | 1094 | – | 1131.8 | 1148.2 | 1161.9 | 1175.3
323.15 K | 964 | 1007.3 | 1037.7 | 1069.4 | – | 1113 | 1129 | 1145.6 | 1159.2 | 1172.7
